# According to the supplement of paper PMC10338343:
# ± gives the standard deviation. The list shows a part of the results, in another mix than the full data.
# System: MIWI (PIWIL1) piRISC loaded with L1MC piRNA (30 nt)
# Assay: pre-steady-state target cleavage rate (min^-1); MIWI and MILI are mouse PIWI proteins and EfPiwi is from a freshwater sponge; tags in brackets are library labels; higher = faster piRNA-guided slicing of the target
# Settings: guide: L1MC piRNA 5'p-UAACUAAAUACUAUGCAAGCUGUAGGUCCU
# How it was run: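 A transcribed, DNA-blocked target RNA library (0.1 nM) and 1 nM active affinity-purified piRISC bearing one synthetic guide were incubated in HEPES–potassium acetate buffer at 33 °C for 0–8 or 0–960 min, either with or without 500 nM GTSF1 partner protein. Uncleaved targets were sequenced, normalised to depth and to weakly complementary targets, and pooled over three trials, with k3 capped at 0.0001 min^-1. The pre-steady-state cleavage rate was derived with a burst-and-steady-state fit.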
# [1] = auxiliary factor: 500 nM mouse GTSF1
# [2] = auxiliary factor: none (no GTSF1)
Sequence,pre-steady-state target cleavage rate [1],pre-steady-state target cleavage rate [2]
UCGAACUACAGCUUGCAUAGUAUUUAGUUA,1.39 ± 0.049,0.0698 ± 0.011
UCCACCUAGACCUUGCAUAGUAUUUAGUUA,0.517 ± 0.038,0.0242 ± 0.0044
UGGACCUACAGCUUGCAUAGUAUUUAGUGA,1.12 ± 0.064,0.0575 ± 0.011
UCCUGCUACAGCUUGCAUAGUUAUUUAGUUA,0.073 ± 0.013,0.00386 ± 0.0025
UCCUGGAUCAGCUUGCAUAGAUUUUAGUUA,0.0226 ± 0.0057,0.00439 ± 0.0024
UGCUGCUACAGCUUGCAUAGUAUUUAGAAA,0.255 ± 0.035,0.00391 ± 0.002
UCCUCCUUCAGCUUGCAUAGAAUUUAGUUA,0.338 ± 0.048,0.0118 ± 0.0032
UCCUGGAUCACCUUGCAUAGUAUUUACAAA,0.15 ± 0.037,0.00391 ± 0.0029
AGGACCUUCAGCUUGCAUAGUAUAUAGUUA,0.827 ± 0.057,0.0427 ± 0.009
UCCUCGCUACAGCUUGCAUAGUAUUUAGUUA,0.831 ± 0.05,0.0517 ± 0.0088
UCCUGGAUCAGCUUGCAUUGUAAUUAGUUA,0.084 ± 0.0095,0.00899 ± 0.0041
UCCUCCAAGAGCUUGCAUAGUAUUUAGUUA,1.02 ± 0.043,0.0449 ± 0.0085
UGGUCCUACAGCUUCCAUAGUAUUUAGUUA,0.0846 ± 0.02,0.00418 ± 0.0022
UCCACCUACAGCUGCAUAGUAUUUAGUUA,0.815 ± 0.04,0.0053 ± 0.0024
UGGACCUACAGCUAGCAUUGUAUUUAGUUA,0.828 ± 0.042,0.0116 ± 0.0035
UCCUGGUACAGCUUGCAUAGUAUUUAGCUUA,0.235 ± 0.039,0.0296 ± 0.0086
UCCUGGAACAGCUUGCAUAGUAUUGAGUUA,0.439 ± 0.043,0.0332 ± 0.0068
UCCUGGAACAGCUUGGAAAGUAUUUAGUUA,0.68 ± 0.027,0.00543 ± 0.0022
UCGACCUACAGCUUGCAAAGUAUUUAGUAA,0.99 ± 0.053,0.0245 ± 0.0048
UCCUGGAUGAGCUGUGCAUAGUAUUUAGUUA,0.597 ± 0.035,0.0153 ± 0.0046
UCCUGGAUGUGCUUGCAUAAUAUUUAGUUA,0.21 ± 0.021,0.0165 ± 0.0044
UCCUCCUACAGCUAGCAUAGAAUUUAGUUA,0.271 ± 0.026,0.00634 ± 0.0024

Sequence,pre-steady-state target cleavage rate [1],pre-steady-state target cleavage rate [2]
UCCUCCUACAGCUUGCAUCGUAUUUAGUUA,0.546 ± 0.02,0.0308 ± 0.0057
UGGACCUACACCUUGCAUAGUAUUUACAAA,0.249 ± 0.038,0.008 ± 0.0019
UCGACCUACAGCUUGCAAAGUAAUUAGUUA,0.871 ± 0.043,0.0086 ± 0.0031
UCCACCUAGAGCUUGCAUAGUAUUUACAAA,0.294 ± 0.04,0.00242 ± 0.0019
UCCUGGAUGUCCUUGCAUAGUAAUUAGUUA,0.023 ± 0.0088,0.00356 ± 0.0015
UCCUCCUACAGCUUGCAUACAAUUUAGUUA,0.0256 ± 0.0087,0.00388 ± 0.0026
UCCACCUACAGCUUGCAUAGUUAUUUAGUUA,0.0679 ± 0.012,0.00374 ± 0.0023
AGGACCUACAGCUUGCAUACUAUUUACAAA,0.191 ± 0.031,0.00474 ± 0.0026
UCGACCUACAGCUUGCAUAAUAUUUAGUUA,0.672 ± 0.03,0.0408 ± 0.0074
UCCUGGAUGUCCUUGCAUAGUAUUUAGUA,0.0102 ± 0.0043,0.004 ± 0.0026
UCCUGGAUGAGCUUGCAUUGUAUUUAGAUA,0.231 ± 0.037,0.0107 ± 0.0044
UCGACCUACAGCUUGCAUAGUAUUUUGAAA,0.399 ± 0.03,0.0061 ± 0.0028
UCCUGGAACAGCUAGCAUAGUAUUAAGUUA,0.599 ± 0.054,0.00625 ± 0.0028
AGGACCUACAGCUUGCCAUAGUAUUUAGUUA,0.445 ± 0.048,0.00418 ± 0.0029
UCCUGGAUCUCGUUGCAUAGUAUUUAGUUA,0.156 ± 0.016,0.00559 ± 0.0022
UCCUGCUACAGCUUGCAUAGUAUAUAGUAA,0.253 ± 0.054,0.00409 ± 0.0023
UCCUGGAUGAGCUUGCACAGUAUUUAGUUA,0.983 ± 0.03,0.0642 ± 0.014
UCCUGGAAGAGCUUGGAUAGUAUUUAGUUA,0.672 ± 0.053,0.0302 ± 0.0065
UCGACCUACAGGUUGCAUACUAUUUAGUUA,0.273 ± 0.018,0.0207 ± 0.004
UCCUGCAACAGCUUGCAUAGUAUUUUGUUA,0.657 ± 0.056,0.0348 ± 0.0074
UCCUGGAUCAGCAUGCAUAGUUUUUAGUUA,0.1 ± 0.011,0.0123 ± 0.003
UCCUGGUACAGCUUGCAUAGUAUUUGAGUUA,0.325 ± 0.043,0.0156 ± 0.0057

Sequence,pre-steady-state target cleavage rate [1],pre-steady-state target cleavage rate [2]
UCCUGCUACAGCUUGCAUAGUAUAAUGUUA,0.322 ± 0.029,0.00938 ± 0.003
AGGACCUACUGGUUGCAUAGUAUUUAGUUA,0.868 ± 0.03,0.059 ± 0.0095
AGGACGUACAGCUUGCAAAGUAUUUAGUUA,1.11 ± 0.057,0.0396 ± 0.0083
UCCUGCUUCAGCUUGCAUAGUAUUUAGAAA,0.396 ± 0.047,0.00506 ± 0.0026
UCCUGCUACACCUUGCAUUGUAUUUAGUUA,0.492 ± 0.031,0.0232 ± 0.0039
UCCUGCUACAGCUUGCAUAGAAUUUAGAAA,0.306 ± 0.053,0.00425 ± 0.0023
UCCUGGAACAGCUUGCAAAGUUUUUAGUUA,0.267 ± 0.022,0.026 ± 0.0075
UCCUGGUACAGCUUGCAUAGUAUUUAGUGUA,0.338 ± 0.035,0.0278 ± 0.0061
UCGACCUACACGAUGCAUAGUAUUUAGUUA,1.04 ± 0.057,0.00582 ± 0.0015
UCCUGGUAGUGCUUGCAUAGUAUUUAGUUA,0.622 ± 0.038,0.0448 ± 0.011
UCGACCUAGAGCUUGCAUAGUAUUUAGUAA,0.941 ± 0.057,0.0365 ± 0.0094
UCCACCUACAGCUUGGAUAGUAUUUACUUA,0.219 ± 0.025,0.0196 ± 0.0034
UCCUGGAACAGCUUCCAUAGUAUUUAGUUA,0.0645 ± 0.015,0.00407 ± 0.0015
UCCUGGUACAGCUUGCUUAGUAUUUAGAAA,0.196 ± 0.038,0.00383 ± 0.0021
UCCACCUACAGCUUGCAUAGUAAUUAGUUA,0.745 ± 0.051,0.0222 ± 0.0057
UCCACCUACAGGUUGCAUUGUAUUUAGUUA,0.657 ± 0.038,0.0139 ± 0.0028
UCCUGGUUCAGCUUGCAAAGUAUUUAGUUA,1.04 ± 0.049,0.0567 ± 0.014
UCCUGGUACAGCUAGCAUAGUAUUUACUUA,0.186 ± 0.041,0.0109 ± 0.0038
UCGACCUAGACCUUGCAUAGUAUUUAGUUA,0.947 ± 0.035,0.0351 ± 0.0063
UCCACCUACAGCCUUGCAUAGUAUUUAGUUA,0.944 ± 0.05,0.039 ± 0.0056
AGGACCUAGAGGUUGCAUAGUAUUUAGUUA,0.546 ± 0.092,0.0249 ± 0.0039
